Experimental data from PubChem BioAssay AID1458 (National Center for Advancing Translational Sciences (NCATS), 2008).
The campaign covered roughly 210,000 compounds. About 5,900 (2.8%) were called active. The shares of active, inactive and inconclusive entries below differ from those in the screen. Calls follow the shape of the dose curve; as a rule, active = well fitted activation curve with a large enough effect; inconclusive = small, poorly fitted or top-dose-only effect; inactive = no such curve, though single readings can be large or run the other way. Potencies of inconclusive entries are doubtful fits and often do not repeat.
Potency is read from the fitted curve at half-maximal effect; tags tell the direction and shape of the fitted curve.

Test: qHTS Assay for Enhancers of SMN2 Splice Variant Expression; also: nearly all actives have a fitted effect of over 55% in size; as to activity change, positive = activation: % of control where 0% means no effect
Settings: HEK293 SMN2-luciferase splicing reporter, luminescence, 30-36 h; activity change, positive = activation: at 46.1 µM (top of the series)
In short: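 qHTS luciferase splicing reporter: luminescence rises when SMN2 exon 7 is included in transfected HEK293 cells. Compound exposure lasted 30-36 h at 37C, with 4.5 mM final sodium butyrate as control, followed by a ONE-Glo read.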
With `O=C(Nc1nc(-c2cc(F)ccc2F)cs1)C1=NN(c2ccccc2)C(=O)CC1` the “activity change, positive = activation” value was inactive: -14.8%. In the case of `O=c1cc(O)c2c(=O)n(-c3ccccc3)c3c(c2o1)CCCCC3`, the “activity change, positive = activation” value is reported as inactive: -1.13%. In the case of `Cc1c(Cl)cccc1NC(=O)c1cc(C2CC2)on1`, the “activity change, positive = activation” value is reported as inactive: 9.04%. With `CCC(=O)n1nc(-c2ccco2)nc1SCc1ccccc1` the Potency was inconclusive: 7.94 µM [activator, partial curve]. For `COc1ccc(NC(=O)Cn2ncc3c4ccccc4n(Cc4ccccc4)c3c2=O)cc1OC`, the “activity change, positive = activation” value was inactive: 10.7%. For `Cc1ccc(SCCNC(=O)CN2C(=O)c3ccccc3S2(=O)=O)cc1`, the Potency was inconclusive: 3.98 µM [activator, single point]. In the case of `CCC(CC)NC(=O)c1cccc(NC(=O)C(C)C)c1`, the activity change, positive = activation is reported as inconclusive: 35.2% [activator]. In the case of `Cc1ccc(/C=C/C(=O)Nc2cc(=O)n(C)c(=O)n2C)o1`, the Potency is reported as inconclusive: 12.6 µM [activator, partial curve]. With `COc1ccccc1CSc1nc2n(n1)C(c1ccccc1)C(C(=O)Nc1ccc(C)cc1)=C(C)N2` (stereo not given) the “activity change, positive = activation” value was inactive: 2.72%. For `CCCC(=O)Nc1nnc(-c2ccc3c(c2)OCCO3)o1`, the Potency was inconclusive: 10 µM [activator, partial curve]. For `COc1ccc2c(c1)C(=O)[C@@H](OC(=O)NCCc1ccc(OC)c(OC)c1)[C@H](c1ccc(OC)c(Br)c1)O2`, the “activity change, positive = activation” value was inactive: -1.02%. With `Cc1cccc(CCNC(=O)CCc2c(C)nc3c(-c4ccc(F)cc4)c(C)nn3c2C)c1` the Potency was inconclusive: 25.1 µM [activator, single point]. With `CCOC(=O)C1CCN(C(=O)CN2C(=O)C(CC)Oc3ccccc32)CC1` (stereo not given) the Potency was inconclusive: 11.2 µM [activator, partial curve, poor fit]. In the case of `Cn1c(=O)c2c(nc(SCC(=O)N3CCCCCC3)n2C)n(C)c1=O`, the activity change, positive = activation is reported as inconclusive: 30.2% [activator]. In the case of `Fc1ccc(NCc2nc3ccccc3n2CCOc2ccccc2Cl)cc1`, the Potency is reported as inconclusive: 15.8 µM [activator, single point]. For `CC(C)(C)n1nnnc1C(c1ccc2ncccc2c1)N1CCSCC1` (stereo not given), the Potency was inconclusive: 1.41 µM [activator, partial curve, poor fit]. With `CC1(C)Cc2c(sc3nc(-c4ccccc4)oc(=O)c23)CO1` the Potency was inconclusive: 8.91 µM [activator, partial curve]. With `CCc1ccc(-c2nc3cc(NC(=O)c4ccc(F)cc4)ccc3o2)cc1` the Potency was inconclusive: 5.62 µM [activator, single point]. With `CN(C)c1ccc(NC(=O)/C=C/c2c(Cl)cccc2Cl)cc1` the Potency was inconclusive: 35.5 µM [activator, single point]. With `O=C(NCc1cccs1)C1CC(c2ccccc2O)=NO1` (stereo not given) the Potency was inconclusive: 1.58 µM [activator, full curve, poor fit]. For `CC1CCc2c(sc3ncnc(SCC(=O)c4ccccc4)c23)C1` (stereo not given), the Potency was inconclusive: 17.8 µM [activator, single point]. With `CCNC(=O)CC1C(=O)N(c2cccc(OC)c2)C(=O)N1CCOC` (stereo not given) the “activity change, positive = activation” value was inactive: 14.4%. With `Cc1ccc(Oc2cc(-n3nc(C)cc3C)ncn2)cc1` the Potency was inconclusive: 35.5 µM [activator, single point]. In the case of `Cc1ccc(N/N=C/c2cccnc2)cc1`, the Potency is reported as inconclusive: 1.41 µM [activator, partial curve]. With `COC(=O)c1ccc(N2C(=O)CC(N(C)CCc3ccc(OC)c(OC)c3)C2=O)cc1` (stereo not given) the Potency was inconclusive: 2.82 µM [activator, single point]. With `Cc1ccn2cc(-c3nonc3C)cc2c1` the Potency was inconclusive: 14.1 µM [activator, single point]. In the case of `Cc1sc(C2C(C#N)=C(N)N(c3cccc(Cl)c3)C3=C2C(=O)CCC3)cc1CN1CCOCC1` (stereo not given), the “activity change, positive = activation” value is reported as inactive: 8.27%. With `c1ccc(COc2cccc(CNCc3ccccn3)c2)cc1` the “activity change, positive = activation” value was inactive: -14.9%. In the case of `O=C(Nc1ccccc1C(=O)O)c1ccc2ccccc2n1`, the Potency is reported as inconclusive: 0.126 µM [activator, full curve]. With `CCOc1ccc(NC(=O)C2CC(=O)NC(N3CCc4ccccc43)=N2)cc1` (stereo not given) the Potency was inconclusive: 0.0032 µM [activator, full curve, poor fit]. In the case of `Cc1cc(NC(=O)CSc2nc(-c3cccs3)cc(C(F)(F)F)n2)no1`, the Potency is reported as inconclusive: 2.82 µM [activator, single point]. With `c1ccc(-c2ccc(SCc3cccnc3)nn2)nc1` the Potency was inconclusive: 12.6 µM [activator, single point]. With `Cc1cc(C)cc(C(=O)Nc2ccc(N3CCCC3)cc2)c1` the Potency was active: 8.91 µM. With `COc1ccc(-c2c(=O)n(OCc3ccccn3)c3ccccc3[n+]2[O-])cc1OC` the “activity change, positive = activation” value was inactive: -28.5%. For `Cn1c(CN2CCCC2)nc2cc(NC(=O)Nc3ccccc3)ccc21`, the Potency was inconclusive: 7.94 µM [activator, partial curve, poor fit]. For `CCOC(=O)c1cc2c(=O)n3ccccc3nc2n(CCOC)c1=NC(=O)C(C)(C)C`, the Potency was inconclusive: 20 µM [activator, single point]. With `CC(C)CNC(=S)NNC(=O)c1csc2c1CCCC2` the Potency was inconclusive: 5.01 µM [activator, single point]. With `COc1ccccc1NC(=O)NC1(C(=O)N2CCCCCC2)CCCCC1` the “activity change, positive = activation” value was inactive: -17.9%. In the case of `S=C(NCCN1CCOCC1)Nc1ccc(Cl)cc1`, the Potency is reported as inconclusive: 0.0126 µM [activator, full curve, poor fit]. In the case of `COc1ccc(/C(O)=C2\C(=O)C(=O)N(CCN(C)C)C2c2cc(OC)c(OC)c(OC)c2)c(C)c1` (stereo not given), the Potency is reported as inconclusive: 0.501 µM [activator, full curve]. For `CCOC(=O)c1c(NC(=O)CCl)sc(C(=O)N(CC)CC)c1C`, the “activity change, positive = activation” value was inactive: -9%. With `CCOc1ccc(N(CC)C(=O)c2cc3c(=O)oc4ccccc4c3s2)cc1` the “activity change, positive = activation” value was inactive: 8.87%. With `Cc1ccc(CNC(=O)Cc2csc(Nc3nc(=S)[nH]c4ccccc34)n2)cc1` the Potency was inconclusive: 0.0891 µM [activator, full curve, poor fit]. For `COc1cc(CNc2ccc3[nH]c(=O)[nH]c3c2)ccc1OCC(=O)NC(C)(C)C`, the Potency was inconclusive: 0.0045 µM [activator, full curve, poor fit]. For `CC1=C(C(=O)OCCOC(C)C)C(c2cc3c(cc2Br)OCO3)CC(=O)N1` (stereo not given), the Potency was inconclusive: 12.6 µM [activator, partial curve, poor fit].
